In the supplement of paper PMC7826260:
The other results are listed elsewhere or left out. One pool of 16,384 single-stranded DNAs met each Rep nickase domain in vitro for 1 h at 37 °C with 3 µM enzyme; only the middle of the 90-letter strands is printed. Uncut reads are compared with the no-enzyme pool on a log2 scale; uncut sequences lie near 0, cut ones below; no hit call is given. Counts are relative to all reads; where an enzyme cuts many sequences, the uncut ones exceed 0.

Assays:
Assay in all cases: uncleaved DNA left, log2 of reads against the no-enzyme library (log2 ratio); higher = less cleavage (more negative = more Rep cleavage of the k-mer); sequences stand for … in CTCGTCCG…ACCGGAGA
[1] = system: T1, Rep nickase domain of Muscovy duck circovirus
T1 sequence (residues 1-111 of Rep, tag left off): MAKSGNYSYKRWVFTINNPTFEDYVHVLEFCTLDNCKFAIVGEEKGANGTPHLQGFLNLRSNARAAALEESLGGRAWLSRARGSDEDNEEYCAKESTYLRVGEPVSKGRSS
Method: (§1)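 A pool of 90-nt single-stranded DNAs with seven random bases just before the constant AC of the nick site (name = the seven bases) was cut by 3 µM recombinant His6-SUMO-tagged Rep nickase domain (300 nM DNA, 50 mM HEPES pH 8.0, 50 mM NaCl, 1 mM MnCl2, 1 h, 37 °C, three replicates). Uncut DNA was amplified and sequenced.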

[2] = system: T2, Rep nickase domain of banana bunchy top virus
T2 sequence (residues 1-94 of Rep, tag left off): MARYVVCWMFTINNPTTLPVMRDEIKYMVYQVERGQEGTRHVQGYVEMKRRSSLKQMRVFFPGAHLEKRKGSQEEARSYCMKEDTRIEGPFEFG
Method: as §1

[3] = system: T3, Rep nickase domain of cabbage leaf curl virus
T3 sequence (residues 1-116 of Rep, tag left off): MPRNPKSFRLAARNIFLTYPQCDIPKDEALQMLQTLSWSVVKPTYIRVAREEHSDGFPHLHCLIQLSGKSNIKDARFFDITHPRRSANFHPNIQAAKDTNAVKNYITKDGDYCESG
Method: as §1

[4] = system: T4, Rep nickase domain of chickpea chlorotic dwarf virus
T4 sequence (residues 1-124 of Rep, tag left off): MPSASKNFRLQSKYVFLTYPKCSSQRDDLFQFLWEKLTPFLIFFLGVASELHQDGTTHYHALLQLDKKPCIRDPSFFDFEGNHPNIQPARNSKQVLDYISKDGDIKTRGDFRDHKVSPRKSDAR
Method: as §1

[5] = system: T5, Rep nickase domain of faba bean necrotic yellows virus
T5 sequence (residues 1-98 of Rep, tag left off): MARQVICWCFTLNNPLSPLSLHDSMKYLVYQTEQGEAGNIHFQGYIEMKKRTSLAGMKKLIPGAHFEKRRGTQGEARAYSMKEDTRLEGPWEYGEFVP
Method: as §1

[6] = system: T6, Rep nickase domain of maize striate mosaic virus
T6 sequence (residues 1-117 of Rep, tag left off): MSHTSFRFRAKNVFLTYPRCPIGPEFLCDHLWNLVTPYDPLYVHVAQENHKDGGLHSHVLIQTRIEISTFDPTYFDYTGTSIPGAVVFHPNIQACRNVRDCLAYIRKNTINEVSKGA
Method: as §1

[7] = system: T7, Rep nickase domain of porcine circovirus 2
T7 sequence (residues 2-116 of Rep, tag left off): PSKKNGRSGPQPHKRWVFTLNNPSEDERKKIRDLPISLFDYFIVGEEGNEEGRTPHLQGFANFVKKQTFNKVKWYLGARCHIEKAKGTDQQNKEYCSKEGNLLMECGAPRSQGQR
Method: as §1

[8] = system: T8, Rep nickase domain of tomato golden mosaic virus
T8 sequence (residues 1-124 of Rep, tag left off): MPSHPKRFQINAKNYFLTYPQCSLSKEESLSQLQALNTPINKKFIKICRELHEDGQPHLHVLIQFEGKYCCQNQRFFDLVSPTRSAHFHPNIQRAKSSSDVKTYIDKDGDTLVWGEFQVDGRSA
Method: as §1

[9] = system: T9, Rep nickase domain of tomato yellow leaf curl virus
T9 sequence (residues 1-136 of Rep, tag left off): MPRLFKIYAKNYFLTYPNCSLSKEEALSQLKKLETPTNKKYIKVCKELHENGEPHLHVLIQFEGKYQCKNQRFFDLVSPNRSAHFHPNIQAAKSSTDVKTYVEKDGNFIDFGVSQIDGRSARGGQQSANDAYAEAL
Method: as §1

[10] = system: T10, Rep nickase domain of wheat dwarf virus
T10 sequence (residues 1-137 of Rep, tag left off): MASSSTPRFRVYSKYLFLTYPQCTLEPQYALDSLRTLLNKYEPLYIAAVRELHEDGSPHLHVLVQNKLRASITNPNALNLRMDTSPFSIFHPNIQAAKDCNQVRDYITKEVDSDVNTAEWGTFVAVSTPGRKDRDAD
Method: as §1

Sequence	uncleaved DNA left (log2) [1]	uncleaved DNA left (log2) [2]	uncleaved DNA left (log2) [3]	uncleaved DNA left (log2) [4]	uncleaved DNA left (log2) [5]	uncleaved DNA left (log2) [6]	uncleaved DNA left (log2) [7]	uncleaved DNA left (log2) [8]	uncleaved DNA left (log2) [9]	uncleaved DNA left (log2) [10]
ACTGTAG	0.0772	0.08	-0.629	-0.508	0.149	-1.09	0.196	0.168	0.136	0.0342
TTAGCTT	0.00384	0.129	-0.0742	-1.67	0.00363	0.163	-0.0968	0.0321	-0.00962	-0.0275
GATCCGA	0.0987	0.0824	0.265	0.637	0.00517	0.438	0.156	0.0669	0.0992	0.0513
CATCATC	-0.0123	-0.061	0.0629	-0.242	-0.0421	-0.73	0.0657	-0.0792	-0.00686	-0.143
TCTAAAA	0.0146	-0.0461	0.0351	-0.013	-0.0304	-0.468	0.0762	-0.0385	-0.141	-0.038
GAAGAAA	0.01	0.062	0.279	0.542	0.0365	0.805	0.106	0.0899	0.063	0.149
TCATTCG	0.0175	-0.0513	-0.728	0.601	0.0783	-0.539	0.0935	-0.208	-0.0306	-0.0996
ACCTAAC	0.0434	0.11	-0.548	-1.38	0.0394	-0.877	0.0544	0.0614	0.0768	0.146
AAGAACA	-0.138	-0.0221	-0.152	-2.09	-0.149	-0.268	-1.09	-0.113	-0.156	-0.0447
AGTTCGT	0.0974	0.00533	-0.399	-0.674	0.0487	-1.01	-2.38	0.0145	0.0533	-0.0213
TAGTCCA	-0.0955	-0.626	-0.169	-2.18	-0.971	0.0981	-3.22	0.0708	0.219	0.153
CGCGCTC	-0.187	-0.177	-0.218	-0.25	-0.164	-0.33	-0.0448	-0.0626	-0.139	-0.0248
TGGACTG	0.0279	-0.0465	0.0433	0.739	-0.0992	1.73	-0.02	-0.066	-0.0534	0.00171
GACGCGT	0.056	-0.0661	-0.731	-0.72	-0.1	-0.716	-0.0168	-0.0215	-0.13	-0.183
CCGACGA	-0.015	0.0171	0.0383	0.225	-0.0863	-0.147	0.0902	-0.000411	-0.082	-0.0918
TGAAGAA	0.128	-0.0157	0.151	0.0839	0.071	-0.291	-0.0248	0.139	0.0083	0.115
TATTTCG	0.0203	-0.124	-0.954	0.0113	0.108	-1.15	0.0846	-0.0368	-0.00041	-0.101
CGTGTAT	-0.00666	-0.000158	0.217	0.254	0.0168	0.596	-0.0219	0.00307	0.111	0.085
CTTCGAT	0.0269	-0.205	0.00296	-0.386	-0.053	-0.215	-0.207	-0.0307	-0.0277	-0.0507
CACAAGA	-0.0139	0.000358	-0.00332	-0.373	-0.0367	-1.07	0.139	0.00904	-0.0685	0.00936

Sequence	uncleaved DNA left (log2) [1]	uncleaved DNA left (log2) [2]	uncleaved DNA left (log2) [3]	uncleaved DNA left (log2) [4]	uncleaved DNA left (log2) [5]	uncleaved DNA left (log2) [6]	uncleaved DNA left (log2) [7]	uncleaved DNA left (log2) [8]	uncleaved DNA left (log2) [9]	uncleaved DNA left (log2) [10]
AAGATTA	0.156	0.0512	0.000739	-1.08	0.319	0.157	-0.978	0.133	0.151	0.148
AGTAGTT	0.00669	-0.119	-0.136	-1.46	-0.37	-0.0865	-3.4	-0.0322	-0.0776	-0.137
GACGTTG	0.0187	-0.0422	-0.0882	0.102	-0.179	-0.0426	0.0113	0.0155	-0.234	-0.179
ACACTAG	0.0114	0.0248	-0.641	0.143	0.12	-0.66	0.214	0.000656	0.0193	-0.00737
AAGAATA	0.0893	-0.0352	-0.0961	-1.01	0.00667	0.526	-1.13	0.118	-0.106	0.0729
CATGGTT	-0.0336	-0.206	-0.0728	-0.033	-0.19	0.871	-0.215	-0.194	-0.224	-0.243
CGCTCCA	0.0425	-0.0116	0.0852	-0.472	0.0625	0.0827	-0.0917	-0.0297	-0.029	0.0352
CGTAGGC	0.136	0.0998	0.199	0.267	0.0909	-0.345	0.228	-0.0531	0.134	-0.00386
GATAAAC	0.0151	0.066	0.222	0.506	-0.00297	0.628	0.0541	-0.045	0.054	-0.0304
TCAACGT	-0.00874	-0.0575	-0.051	-0.669	-0.038	-0.413	0.0563	-0.114	-0.0978	-0.117
ATAGGAC	0.00523	0.0067	0.236	1.21	-0.0243	1.18	0.164	0.104	-0.101	0.1
ACTTGTG	0.114	-0.00222	-0.399	1.09	0.0504	0.168	0.0482	-0.0637	0.0328	0.0669
TGGAGGG	0.183	0.164	0.136	0.251	0.162	-0.0768	0.182	0.108	-0.00811	0.0427
CATAAAG	-0.081	-0.0693	-0.706	-0.13	0.0213	-1.09	0.0876	-0.0694	0.00572	-0.1
CTTCTTT	-0.0245	-0.0791	-0.221	-2.32	0.0083	-0.768	-0.53	-0.143	0.0313	-0.114
GCTGTCT	0.0922	-0.045	0.0603	-0.471	-0.0481	0.411	-0.108	0.0079	-0.128	-0.0611
CATAAAC	0.0277	-0.083	-0.0509	-0.648	0.0083	-0.984	0.093	-0.0425	-0.0841	0.0337
GGTCAAA	0.0185	0.143	0.529	1.39	0.0958	1.89	0.229	0.134	0.0449	0.136
AATGTGG	0.0612	-0.103	-0.32	-0.294	0.0799	-1.08	0.0938	0.0316	-0.00464	0.017
CTCGGTC	0.125	-0.021	0.181	0.0364	-0.0248	-0.347	0.0594	0.000379	-0.000458	0.0128

Sequence	uncleaved DNA left (log2) [1]	uncleaved DNA left (log2) [2]	uncleaved DNA left (log2) [3]	uncleaved DNA left (log2) [4]	uncleaved DNA left (log2) [5]	uncleaved DNA left (log2) [6]	uncleaved DNA left (log2) [7]	uncleaved DNA left (log2) [8]	uncleaved DNA left (log2) [9]	uncleaved DNA left (log2) [10]
GGCATAG	0.143	0.114	0.0549	0.506	0.0705	0.0587	0.171	0.188	0.115	0.136
TTGCCGG	0.00481	0.00738	0.246	0.79	-0.0626	0.537	0.0404	-0.0141	-0.096	-0.0835
CTTTTCT	-2.5	-0.178	-0.315	-2.62	-0.172	-0.908	-2.46	-0.184	-0.126	-0.0577
TTTGACC	0.0648	0.0458	0.145	0.254	0.138	0.23	-0.0309	-0.0225	0.0192	0.105
TTGATCG	0.00178	-0.199	-0.908	-0.249	-0.036	-1.08	0.176	-0.199	0.00527	-0.125
GTCCTTA	-0.00972	0.145	0.407	0.825	0.0702	1.78	0.11	0.129	0.173	0.178
CCTCAAG	0.0408	-0.135	-0.892	-0.705	-0.2	-1.26	0.149	-0.00774	-0.191	-0.134
CCAACCG	-0.063	0.0755	-0.663	-1.08	0.0983	-0.74	-0.00211	0.00871	0.000841	-0.0504
GAACTGG	-0.122	-0.0508	0.35	0.963	-0.16	1.15	0.124	0.0815	-0.0438	0.0207
CCGGGAA	0.0861	-0.0774	0.492	1.01	0.032	1.68	0.103	-0.219	-0.0908	-0.00101
TTTCAGG	0.0255	-0.00109	0.416	1.28	-0.0591	1.74	-0.0205	0.0668	-0.108	-0.0831
AGTATCT	0.0723	-0.0211	0.0831	-1.46	-0.116	0.169	-3.27	0.0533	0.0526	0.0232
CATAACT	-0.0764	-0.899	-0.692	-2.86	0.075	-1.21	-1.94	-0.117	-0.00308	-0.0484
GAAAACA	-0.00675	0.138	0.324	-1.49	0.0405	0.691	0.0839	0.123	0.0429	0.0677
AATTCCA	-1.72	-0.584	-0.119	-2.61	-0.0887	-0.611	-2	-0.124	-0.0508	-0.0726
CTGGTCC	-0.045	0.0241	0.208	0.00865	-0.118	0.0371	0.128	-0.14	0.028	0.127
GCTGGCT	0.0929	-0.041	0.0573	0.0586	-0.184	0.205	0.0123	0.135	-0.0552	-0.169
TGGACCT	0.199	0.133	0.809	1.78	0.0412	2.16	0.297	0.15	0.0984	0.306
TTGAGCA	-0.0422	-0.0766	-0.285	-0.7	-0.0894	-1.02	-2	-0.0723	0.0111	-0.188
GATGCGG	-0.0371	-0.136	-0.128	-0.12	-0.189	-0.281	0.00747	-0.0719	-0.0635	-0.117
